# According to PubChem BioAssay (Tox21):
# Where “and” joins values, the source holds several entries; their conditions need not be identical. Identical values can stand only once. Inconclusive means that the source gave no clear call. Such entries were picked first, then a sample of the others. Potencies of inconclusive entries are doubtful fits and often do not repeat. Where a structure was tested more than once in an assay, its records may differ in their call. Calls of active or inactive are those of the source. Calls come from the whole dose curve; as a rule, active = well fitted activation curve with a large enough effect in the repeat runs; inconclusive = weak or mixed curves; inactive = flat fitted curve, though single readings scatter.
# Experiment: A CellTox Green Cytotoxicity Assay to monitor cytotoxicity in HepG2 cells - 16 hour (AID 1224876); note: nearly all actives have a fitted effect of over 45% in size
# Details: CellTox Green fluorescence; series mostly up to 76.8 µM; cytotoxicity increase: at the top concentration
# Text: National Center for Advancing Translational Sciences [NCATS]
# NIH Chemical Genomics Center [NCGC]
# U.S. Environmental Protection Agency [EPA]
# National Institutes of Environmental Health Sciences [NIEHS]
# National Toxicology Program [NTP]
# Cell-based models are critical for drug discovery. Determining the natural cytotoxic effects resulting from test compounds is an essential research activity. A CellTox Green Cytotoxicity Assay to monitor cytotoxicity in real time of continues cell culture during 40 hours of the compound treatment was used to screen Tox21 10K library compounds in HepG2 cells. CellTox Green Cytotoxicity Assay is a nonlytic, homogeneous, biofluorescent method to measure cytotoxicity in cell culture after experimental manipulation. The assay system uses a proprietary asymmetric cyanine dye that is excluded from viable cells but preferentially stains the dead cell's DNA. […] Viable cells produce no appreciable increases in fluorescence. Therefore, the fluorescence signal produced by the binding interaction with dead cell DNA is proportional to cytotoxicity.
# The mixture of HepG2 cell suspension and reagents were dispensed at 600cells/6 ul/well in 1536-well tissue culture treated black solid bottom plates using a Multidrop dispenser. After the assay plates were incubated at a 37 C/5% CO2 incubator for 5 hours, 23 nL of compounds dissolved in DMSO, positive and negative controls was transferred to the assay plate by a pintool work station. The plates were incubated at 37 C for 40 hours. The fluorescence intensity were measured at 0h, 8h, 16h, 24h, 32h and 40h time points using ViewLux plate reader during compound treatment.
# % is set by controls: 0 for no effect and ±100 for the full control effect; potency is the fitted concentration of half-maximal effect; tags give direction and shape of the fitted curve.
Compound,Potency,cytotoxicity increase
Clc1ccc(C(Cl)(Cl)Cl)cc1,inactive,–
CCC(OC(C)=O)C(CC(C)NC)(c1ccccc1)c1ccccc1 (stereo not given),active: 62.2 µM,–
C=CCO,active: 24.5 µM,–
CCOc1cc(OP(=S)(OC)OC)nc(CC)n1,–,inactive: 5.02%
CS/C(C)=N/OC(=O)N(C)SN(C)C(=O)O/N=C(\C)SC,"inconclusive: 54.9 µM [activator, single point]",–
O=NN1CCCC1,"inconclusive: 64.5 µM [activator, single point] and inconclusive: 21.9 µM [activator, partial curve, poor fit]",–
COP(=S)(OC)Oc1nc(Cl)c(Cl)cc1Cl,–,inactive: 3.89%
C=CCc1ccc2c(c1)OCO2,inactive,–
C=CCC1(C(C)CC)C(=O)NC(=O)NC1=O (stereo not given),–,inactive: 1.49% [at 35.3 µM]
CCN(CC)c1c([N+](=O)[O-])cc(C(F)(F)F)c(N)c1[N+](=O)[O-],"inconclusive: 54.9 µM [activator, partial curve, poor fit]",–
C[Si](Cn1cncn1)(c1ccc(F)cc1)c1ccc(F)cc1,active: 50.6 µM,–
CCCCNC(=O)OCC#CI,"inconclusive: 54.9 µM [activator, single point]",–
COP(=S)(Oc1cc(Cl)c(Br)cc1Cl)c1ccccc1 (stereo not given),"inconclusive: 21.9 µM [activator, single point]",–
CN(C)P(=O)(N(C)C)N(C)C,"inconclusive: 54.9 µM [activator, single point]",–
CC(C)(C)C(O)C(Oc1ccc(Cl)cc1)n1cncn1 (stereo not given),"inconclusive: 38.9 µM [activator, partial curve]",–
CC[C@H]1C[C@H]2[C@@H]3CCC4=CC(=O)CC[C@@H]4[C@H]3CC[C@]2(C)[C@H]1O,–,inactive: 23.9% [at 35.3 µM]
O=S(=O)(C(Cl)(Cl)Cl)C(Cl)(Cl)Cl,active: 38.9 µM,–
O=C(O)C(F)(F)C(F)(F)C(F)(F)C(F)(F)C(F)(F)C(F)(F)C(F)(F)C(F)(F)C(F)(F)C(F)(F)F,"inconclusive: 20.7 µM [activator, single point]",–
Clc1ccc(C(OCCN2CCCCC2)c2ccccc2)cc1 (stereo not given),"inconclusive: 26.8 µM [activator, single point]",–
Oc1ccc([C@H]2CNCc3c2ccc(O)c3O)cc1O,active: 23.9 µM,–

Compound,Potency,cytotoxicity increase
C1CN2CCN1CC2,active: 21.9 µM,–
CCOP(=O)(OCC)SCCSCC,"inactive and inconclusive: 43.6 µM [activator, partial curve, poor fit]",–
CCNc1nc(NC(C)(C)C)nc(SC)n1,inactive,–
CCN(CC)C(=S)[S-].CCN(CC)C(=S)[S-].[Zn+2],"inconclusive: 17.2 µM [activator, single point]",–
CCC1(c2ccccc2)C(=O)N=C(O)NC1=O (stereo not given),–,inactive: 1.2%
O=S(=O)(O)C(F)(F)C(F)(F)C(F)(F)C(F)(F)C(F)(F)C(F)(F)C(F)(F)C(F)(F)F,"active: 18.6 µM and inconclusive: 54.9 µM [activator, single point]",–
OC(c1ccc(Cl)cc1)(c1cncnc1)c1ccccc1Cl (stereo not given),active: 49.8 µM,–
CCCC(Cn1cncn1)c1ccc(Cl)cc1Cl (stereo not given),"inconclusive: 54.9 µM [activator, single point]",–
CCN(CC)N=O,"inconclusive: 4.36 µM [activator, single point]",–
Cc1cc(=O)[nH]o1,–,inactive: 2.15%
CC(=O)[O-].CC(=O)[O-].O.O.[Cd+2],"inconclusive: 54.2 µM [activator, single point]",–
NC(=S)Nc1ccccc1,active: 49.8 µM,–
CC(C)(C)C(O)(CCc1ccc(Cl)cc1)Cn1cncn1 (stereo not given),"inconclusive: 54.9 µM [activator, single point]",–
Clc1ccc(CO/N=C(\Cn2ccnc2)c2ccc(Cl)cc2Cl)c(Cl)c1,"inconclusive: 26.8 µM [activator, single point]",–
Nc1ccc(Sc2ccc(N)cc2)cc1,"inconclusive: 21.9 µM [activator, single point]",–
Cc1ncsc1CCCl,–,inactive: 1.2% [at 35.3 µM]
Cc1c(Cl)c(=O)oc2cc(OP(=O)(OCCCl)OCCCl)ccc12,–,inactive: -5.27% [at 35.3 µM]
O=C(O)c1ccccn1,inactive,–
[Cl][Sn]([c]1ccccc1)([c]1ccccc1)[c]1ccccc1,active: 3.29 µM,–
O=[N+]([O-])c1ccc(Oc2ccc(Cl)cc2Cl)cc1,inactive,–
